Test results taken from article PMC11791083.
These are yes or no findings as the source states them, for the method shown. In cells and extracts the contact can be indirect. Some results given as binding are weak or reduced against the parent protein; the word gives no strength. For part of these data: Where a sequence is shown, tags or fusion partners need not be part of it.

By UniProt entry, the sequences of proteins in these tests, tags left out.
UniProt Q15717: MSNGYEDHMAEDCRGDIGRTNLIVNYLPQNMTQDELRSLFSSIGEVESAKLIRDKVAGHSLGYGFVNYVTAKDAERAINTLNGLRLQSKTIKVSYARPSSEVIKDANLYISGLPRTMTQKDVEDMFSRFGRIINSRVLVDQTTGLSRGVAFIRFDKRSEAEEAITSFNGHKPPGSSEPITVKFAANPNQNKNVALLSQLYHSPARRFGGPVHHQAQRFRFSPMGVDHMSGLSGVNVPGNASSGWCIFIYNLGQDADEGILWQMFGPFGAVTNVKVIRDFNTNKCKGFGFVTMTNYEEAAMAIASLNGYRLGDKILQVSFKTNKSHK
UniProt Q04206: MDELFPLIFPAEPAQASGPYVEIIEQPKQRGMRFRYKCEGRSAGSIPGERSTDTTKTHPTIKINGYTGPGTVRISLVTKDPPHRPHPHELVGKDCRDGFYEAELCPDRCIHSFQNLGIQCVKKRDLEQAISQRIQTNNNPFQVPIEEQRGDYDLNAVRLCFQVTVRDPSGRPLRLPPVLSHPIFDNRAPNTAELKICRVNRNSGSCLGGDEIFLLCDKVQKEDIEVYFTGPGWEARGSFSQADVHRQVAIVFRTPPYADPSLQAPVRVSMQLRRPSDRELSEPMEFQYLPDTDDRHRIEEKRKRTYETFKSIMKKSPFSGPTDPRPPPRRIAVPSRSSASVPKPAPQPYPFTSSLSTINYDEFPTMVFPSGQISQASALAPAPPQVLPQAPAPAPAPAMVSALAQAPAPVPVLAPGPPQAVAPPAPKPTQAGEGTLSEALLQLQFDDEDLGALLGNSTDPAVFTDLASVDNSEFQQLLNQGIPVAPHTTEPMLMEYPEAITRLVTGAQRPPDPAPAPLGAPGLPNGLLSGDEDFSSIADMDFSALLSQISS
UniProt Q8N884: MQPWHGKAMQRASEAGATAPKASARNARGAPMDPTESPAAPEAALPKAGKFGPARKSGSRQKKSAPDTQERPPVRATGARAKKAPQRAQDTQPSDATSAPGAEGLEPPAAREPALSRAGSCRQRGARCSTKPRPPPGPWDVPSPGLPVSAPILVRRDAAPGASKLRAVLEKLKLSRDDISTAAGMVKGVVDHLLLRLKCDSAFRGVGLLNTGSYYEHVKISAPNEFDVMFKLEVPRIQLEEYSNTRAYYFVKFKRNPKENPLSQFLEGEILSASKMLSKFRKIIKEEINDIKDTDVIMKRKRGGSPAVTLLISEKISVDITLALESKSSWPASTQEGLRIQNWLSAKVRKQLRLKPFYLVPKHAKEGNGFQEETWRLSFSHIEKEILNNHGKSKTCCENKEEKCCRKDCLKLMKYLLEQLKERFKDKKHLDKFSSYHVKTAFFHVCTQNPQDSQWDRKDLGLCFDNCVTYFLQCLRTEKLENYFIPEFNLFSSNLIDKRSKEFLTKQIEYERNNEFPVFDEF

Legend:
[1] = target: T1, heterogeneous nuclear ribonucleoprotein M, C-terminally GFP-tagged (hnRNPM-GFP) (human) (UniProt P52272); assay: co-IP; GFP-Trap magnetic agarose on lysates of THP-1 cells expressing hnRNPM-GFP or GFP, non-stimulated or pDNA-stimulated (0.1 µg/ml, 3 h); TAP lysis buffer, 4 °C overnight; IPs with or without RNase A (100 µg/ml, 1.5 h); immunoblot
T1 sequence: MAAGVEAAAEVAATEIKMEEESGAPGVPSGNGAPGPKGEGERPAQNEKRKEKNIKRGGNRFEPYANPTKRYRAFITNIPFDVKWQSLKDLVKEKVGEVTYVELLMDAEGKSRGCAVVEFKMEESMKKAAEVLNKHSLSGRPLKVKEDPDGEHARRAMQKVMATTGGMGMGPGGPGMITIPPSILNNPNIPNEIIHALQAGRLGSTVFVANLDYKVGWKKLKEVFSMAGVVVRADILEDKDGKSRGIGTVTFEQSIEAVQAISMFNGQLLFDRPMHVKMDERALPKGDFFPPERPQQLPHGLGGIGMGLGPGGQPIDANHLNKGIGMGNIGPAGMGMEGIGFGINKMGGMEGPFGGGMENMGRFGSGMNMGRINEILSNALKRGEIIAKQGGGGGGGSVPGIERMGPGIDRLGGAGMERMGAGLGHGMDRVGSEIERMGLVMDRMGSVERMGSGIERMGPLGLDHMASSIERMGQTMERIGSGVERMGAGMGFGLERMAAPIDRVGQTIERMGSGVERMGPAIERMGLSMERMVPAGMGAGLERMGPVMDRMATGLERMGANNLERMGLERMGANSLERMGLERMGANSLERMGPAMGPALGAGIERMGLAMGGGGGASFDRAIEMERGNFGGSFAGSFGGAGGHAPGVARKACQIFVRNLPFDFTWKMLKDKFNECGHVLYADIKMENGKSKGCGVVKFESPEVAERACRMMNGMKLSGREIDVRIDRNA

[2] = target: T1, heterogeneous nuclear ribonucleoprotein M, C-terminally GFP-tagged (hnRNPM-GFP) (human); assay: proximity ligation; Duolink PLA in fixed PMA-differentiated THP-1 cells expressing hnRNPM-GFP, ELAVL1-GFP or GFP, non-stimulated or transfected with G3-YSD-AF647 (0.5 µg/ml, 4 h); anti-GFP with anti-pTBK1-Ser172 or anti-ELAVL1; puncta per cell counted as PLA score
[3] = target: ELAV-like protein 1, FLAG-tagged (ELAVL1-FLAG) (human) (UniProt Q15717); assay: co-IP; anti-FLAG M2 magnetic beads on lysates of HEK293FT cells transfected with ELAVL1-FLAG or WT cells; 4 °C overnight; IPs with or without RNase A (100 µg/ml, 1.5 h); elution with 3x FLAG peptide; immunoblot

With “ELAV-like protein 1 (ELAVL1), endogenous in THP-1 (from UniProt Q15717 1-326)” the binding [1] was “binds” and the binding [2] was “binds”.

“NF-κB p65 phosphorylated at Ser536 (NF-κB pp65-Ser536), endogenous in THP-1 (from UniProt Q04206 1-551)” was tested, and the binding [1] was “binds”.

“NF-κB p65, endogenous in HEK293FT (from UniProt Q04206 1-551)” was tested, and the binding [3] was “binds”.

With “NF-κB p65, endogenous in THP-1 (from UniProt Q04206 1-551)” the binding [1] was “binds”.

In the case of “cyclic GMP-AMP synthase (cGAS), endogenous in THP-1 (from UniProt Q8N884 1-522)”, the binding [1] is reported as “no binding”.
